Experimental data from the supplement of paper PMC7125110.
This sample is rich in variants without activity.

B1: glmS ribozyme (parent)
chain: AUAAAAGCGCCAGAACUACAGAAAUGUAGUUGACGAGGAGGAGGUUUAUCGAAUUUUCGGCGGAUGCCUCCAAA

What was measured:
Details in all cases: with glucosamine-6-phosphate
glucosamine-6-phosphate [1] = variants of: B1; assay: self-cleavage kobs at 40 uM GlcN6P; higher = faster cleavage; RNA array
Method in brief: (§1)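 Glucosamine-6-phosphate (40 μM to 10 mM) in HEPES/KCl/Mg(OAc)2 buffer was flowed over sequenced MiSeq chips, and tiles were imaged over ~14 h. Barcoded ribozyme variants there had been transcribed in situ by E. coli RNA polymerase and were tracked through a hybridised Cy3 probe at 37 °C. One- or two-exponential decay fits to per-tile medians, normalised to baseline and to non-cleaving reference variants, gave kobs. kcat and KM came from weighted Michaelis–Menten fits across concentrations.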

glucosamine-6-phosphate [2] = variants of: B1; assay: self-cleavage kobs at 640 uM GlcN6P; higher = faster cleavage; RNA array
Method in brief: as §1

glucosamine-6-phosphate [3] = variants of: B1; assay: self-cleavage kobs at 2500 uM GlcN6P; higher = faster cleavage; RNA array
Method in brief: as §1

glucosamine-6-phosphate [4] = variants of: B1; assay: self-cleavage kobs at 10000 uM GlcN6P; higher = faster cleavage; RNA array
Method in brief: as §1

glucosamine-6-phosphate [5] = variants of: B1; assay: self-cleavage kobs at 160 uM GlcN6P; higher = faster cleavage; RNA array
Method in brief: as §1

AUAAAACCGCCAGAACUACAGAAAUGUAGUUGACGAGGAGGAGGUAUAUCGAAUUUUCGGCGGAUGCCUCCAAA [G7C U46A]
self-cleavage kobs at 40 uM GlcN6P (glucosamine-6-phosphate [1]): < 1e-05 s⁻¹ | self-cleavage kobs at 640 uM GlcN6P (glucosamine-6-phosphate [2]): < 1e-05 s⁻¹ | self-cleavage kobs at 2500 uM GlcN6P (glucosamine-6-phosphate [3]): < 1e-05 s⁻¹ | self-cleavage kobs at 10000 uM GlcN6P (glucosamine-6-phosphate [4]): < 1e-05 s⁻¹

AUAAAACCGCCAGAACUACAGAAAUGUAGUUGACGAGGAGGAGGUUGAUCGAAUUUUCGGCGGAUGCCUCCAAA [G7C U47G]
self-cleavage kobs at 40 uM GlcN6P (glucosamine-6-phosphate [1]): < 1e-05 s⁻¹ | self-cleavage kobs at 10000 uM GlcN6P (glucosamine-6-phosphate [4]): < 1e-05 s⁻¹

AUAAAACCGCCAGAACUACAGAAAUGUAGUUGACGAGGAGGAGGUUUAUCGAAUUUGCGGCGGAUGCCUCCAAA [G7C U57G]
self-cleavage kobs at 40 uM GlcN6P (glucosamine-6-phosphate [1]): < 1e-05 s⁻¹ | self-cleavage kobs at 640 uM GlcN6P (glucosamine-6-phosphate [2]): < 1e-05 s⁻¹ | self-cleavage kobs at 160 uM GlcN6P (glucosamine-6-phosphate [5]): < 1e-05 s⁻¹ | self-cleavage kobs at 2500 uM GlcN6P (glucosamine-6-phosphate [3]): < 1e-05 s⁻¹ | self-cleavage kobs at 10000 uM GlcN6P (glucosamine-6-phosphate [4]): < 1e-05 s⁻¹

AUAAAAUCGCCAGGACUACAGAAAUGUAGUUCACGAGGUGGAGGUUUAUCGAAUUUUCGGCGGAUGCCUCCAAA [G7U A14G G32C A39U]
self-cleavage kobs at 40 uM GlcN6P (glucosamine-6-phosphate [1]): < 1e-05 s⁻¹

AUAAAAUCGCCAGUACUACAGAAAUGUAGACGACGAGGAGGAUGUUUAUCGAACUUUGGUCGGAUGCGUCCAAA [G7U A14U U30A U31C G43U U54C C58G G60U C68G]
self-cleavage kobs at 40 uM GlcN6P (glucosamine-6-phosphate [1]): < 1e-05 s⁻¹ | self-cleavage kobs at 10000 uM GlcN6P (glucosamine-6-phosphate [4]): < 1e-05 s⁻¹

AUAAAAUCGCCAGAACUACAGAAAUGUAGUUGUCGAGGAGGAGGUUUAUCGAAUUUUCGGCGGAUGCCUCCAAA [G7U A33U]
self-cleavage kobs at 40 uM GlcN6P (glucosamine-6-phosphate [1]): < 1e-05 s⁻¹ | self-cleavage kobs at 2500 uM GlcN6P (glucosamine-6-phosphate [3]): < 1e-05 s⁻¹

AUAAAAUCGCCAGAACUACAGAAAUGUAGUUGACGCGGAGGAGGUUUAUCGAAUUUUCGGCGGAUGCCUCCAAA [G7U A36C]
self-cleavage kobs at 40 uM GlcN6P (glucosamine-6-phosphate [1]): < 1e-05 s⁻¹ | self-cleavage kobs at 640 uM GlcN6P (glucosamine-6-phosphate [2]): < 1e-05 s⁻¹ | self-cleavage kobs at 2500 uM GlcN6P (glucosamine-6-phosphate [3]): < 1e-05 s⁻¹ | self-cleavage kobs at 10000 uM GlcN6P (glucosamine-6-phosphate [4]): < 1e-05 s⁻¹

AUAAAAUCGCCAGAACUACAGAAAUGUAGUUGACGUGGACGAGGUUUAUCGAAUUUUCGGCGGAUGCCUCCAAA [G7U A36U G40C]
self-cleavage kobs at 40 uM GlcN6P (glucosamine-6-phosphate [1]): < 1e-05 s⁻¹

AUAAAAUCGCCAGAACUACAGAAAUGUAGUUGACGAGGAGGCGGAUUAUCGAAUUCUCGGCGGAUGCCUGCAAA [G7U A42C U45A U56C C70G]
self-cleavage kobs at 40 uM GlcN6P (glucosamine-6-phosphate [1]): < 1e-05 s⁻¹

AUAAAAUCGCGAGAACUACAGAAAUGUAGUUAACGAGGAUGAGGUUUAUCGAAUUUUCGGCGGAUGCCUCCAAA [G7U C11G G32A G40U]
self-cleavage kobs at 40 uM GlcN6P (glucosamine-6-phosphate [1]): < 1e-05 s⁻¹ | self-cleavage kobs at 10000 uM GlcN6P (glucosamine-6-phosphate [4]): < 1e-05 s⁻¹

AUAAAAUCGCCAGAAGUACAGAAAUGUAGUUGACGAGGAGGAGGUUUAUCGAAUUUUCGGCGGAUGGCUUCAAA [G7U C16G C67G C70U]
self-cleavage kobs at 40 uM GlcN6P (glucosamine-6-phosphate [1]): < 1e-05 s⁻¹ | self-cleavage kobs at 2500 uM GlcN6P (glucosamine-6-phosphate [3]): < 1e-05 s⁻¹

AUAAAAUCCCCAGAACUACAGAAAUGUAGUUGACGAGGAGGAGGUUUAUCGAAUUUUCGGCGGAUGCCUCCAAA [G7U G9C]
self-cleavage kobs at 40 uM GlcN6P (glucosamine-6-phosphate [1]): < 1e-05 s⁻¹ | self-cleavage kobs at 640 uM GlcN6P (glucosamine-6-phosphate [2]): < 1e-05 s⁻¹ | self-cleavage kobs at 160 uM GlcN6P (glucosamine-6-phosphate [5]): < 1e-05 s⁻¹

AUAAAAUCCCGCGAACUACAGAAAUGUAGUUGACGAGGAGGAGGUUUAUCGAAUAUUCGGCGGAUGCCUCCAAA [G7U G9C C11G A12C U55A]
self-cleavage kobs at 40 uM GlcN6P (glucosamine-6-phosphate [1]): < 1e-05 s⁻¹ | self-cleavage kobs at 10000 uM GlcN6P (glucosamine-6-phosphate [4]): < 1e-05 s⁻¹

AUAAAAUCGCCAGAACUACAGAAAUGUAUUUGACUAGGAGUAGGUUUAUCGAAUUUUCGGCGGAUGCCUGCAAA [G7U G29U G35U G41U C70G]
self-cleavage kobs at 40 uM GlcN6P (glucosamine-6-phosphate [1]): < 1e-05 s⁻¹ | self-cleavage kobs at 2500 uM GlcN6P (glucosamine-6-phosphate [3]): < 1e-05 s⁻¹

AUAAAAUCGCCAGAACUACAGAAAUGUAGUUGACCAGGAGGAGUUUUAUCGAAUUUUCGGCGGAUGCCUCCAAA [G7U G35C G44U]
self-cleavage kobs at 40 uM GlcN6P (glucosamine-6-phosphate [1]): < 1e-05 s⁻¹

AUAAAAUCGCCAGAACUACAGAAAUGUAGUUGACGACGAGGAAGUUUAUCGAAUUUUCGGCGGAUGCCUCCAAA [G7U G37C G43A]
self-cleavage kobs at 40 uM GlcN6P (glucosamine-6-phosphate [1]): < 1e-05 s⁻¹ | self-cleavage kobs at 640 uM GlcN6P (glucosamine-6-phosphate [2]): < 1e-05 s⁻¹ | self-cleavage kobs at 160 uM GlcN6P (glucosamine-6-phosphate [5]): < 1e-05 s⁻¹ | self-cleavage kobs at 2500 uM GlcN6P (glucosamine-6-phosphate [3]): < 1e-05 s⁻¹ | self-cleavage kobs at 10000 uM GlcN6P (glucosamine-6-phosphate [4]): < 1e-05 s⁻¹
